Results published in patent publication US20180282386A1 (REGENTS OF THE UNIVERSITY OF MINNESOTA, published 2018).

Target: T1, CD133 on Caco-2 cells (human, UniProt O43490 20-865)
T1 construct: whole, on cells; also called prominin-1
T1 sequence (looked up): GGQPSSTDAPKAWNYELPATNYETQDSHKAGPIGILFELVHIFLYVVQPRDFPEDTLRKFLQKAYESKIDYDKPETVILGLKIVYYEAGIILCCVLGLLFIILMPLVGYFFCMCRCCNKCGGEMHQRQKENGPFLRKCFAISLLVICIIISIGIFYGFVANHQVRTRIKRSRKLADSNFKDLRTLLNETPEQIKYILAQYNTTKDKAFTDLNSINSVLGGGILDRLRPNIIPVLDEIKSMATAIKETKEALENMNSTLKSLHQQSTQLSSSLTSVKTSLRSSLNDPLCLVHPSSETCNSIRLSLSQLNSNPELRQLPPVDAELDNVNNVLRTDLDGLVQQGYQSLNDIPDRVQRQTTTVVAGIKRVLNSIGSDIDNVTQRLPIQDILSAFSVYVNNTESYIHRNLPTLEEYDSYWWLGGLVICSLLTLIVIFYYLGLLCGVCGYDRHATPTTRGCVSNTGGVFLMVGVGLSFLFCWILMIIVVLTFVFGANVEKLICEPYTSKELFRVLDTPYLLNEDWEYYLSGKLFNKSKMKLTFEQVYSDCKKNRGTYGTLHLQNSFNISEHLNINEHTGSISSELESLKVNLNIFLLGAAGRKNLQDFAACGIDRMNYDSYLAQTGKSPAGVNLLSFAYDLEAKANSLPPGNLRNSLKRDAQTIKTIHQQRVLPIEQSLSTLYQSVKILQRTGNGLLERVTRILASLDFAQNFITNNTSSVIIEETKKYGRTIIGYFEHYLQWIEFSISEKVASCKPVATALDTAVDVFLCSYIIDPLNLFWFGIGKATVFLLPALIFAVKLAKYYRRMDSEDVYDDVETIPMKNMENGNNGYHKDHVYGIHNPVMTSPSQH
Assay: flow cytometry, FITC-labeled 1615133 TriKE (1-500 nM) on Caco-2 cells

B1: 1615133 TriKE (other)
chain: MEVQLVESGGGVVRPGGSLRLSCAASGFTFDDYGMSWVRQAPGKGLEWVSGINWNGGSTGYADSVKGRFTISRDNAKNSLYLQMNSLRAEDTAVYYCARGRSLLFDYWGQGTLVTVSRGGGGSGGGGSGGGGSSELTQDPAVSVALGQTVRITCQGDSLRSYYASWYQQKPGQAPVLVIYGKNNRPSGIPDRFSGSSSGNTASLTITGAQAEDEADYYCNSRDSSGNHVVFGGGTKLTVLPSGQAGAAASESLFVSNHAY[letters of about 120 residues omitted]EASGGPEDIVLSQSPAIMSASPGEKVTISCSASSSVSYMYWYQQKPGSSPKPWIYRTSNLASGVPARFSGSGSGTSYSLTISSMEAEDAATYYCQQYHSYPPTFGAGTKLELKSSGGGGSGGGGGGSSRSSLEVKLVESGPELKKPGETVKISCKASGYTFTDYSMHWVNQAPGKGLKWMGWINTETGEPSYADDFKGRFAFSLETSASTAYLQINNLKNEDTATYFCATDYGDYFDYWGQGTTLTVSS
modifications: FITC label (site not stated)
notes: Single-chain fusion
**Q.** Does B1 bind?
**A.** binds
